Measured values taken from PubChem BioAssay AID2546 (National Center for Advancing Translational Sciences (NCATS), 2010).
Out of some 310,000 compounds screened, about 11,000 (3.5%) were called active. Inconclusive results, whose numbers are uncertain, are shown with a selection of clear calls. The call rests on the fitted dose curve; in most records, active means well fitted inhibition curve with a large enough effect; inconclusive means small, poorly fitted or top-dose-only effect, or effect the other way; inactive means flat fitted curve, though single readings scatter. Potencies of inconclusive entries are left out as doubtful fits.

test: VP16 counterscreen qHTS for inhibitors of ROR gamma transcriptional activity; details: Drosophila S2 Gal4-VP16 UAS-luciferase, luminescence, 20 h; activity, negative = inhibition: at 53.6 µM (top of the series);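 further: Gal4-VP16 expression switched on by copper sulfate through the metallothionein promoter; nearly all actives have a fitted effect of over 50% in size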
On the % scale 0 is the no-effect control and ±100 the full control effect; potency means the concentration at half of the fitted maximal effect; tags describe the fitted curve by direction and shape.

Compound	Potency	activity, negative = inhibition
O=C(O)c1sccc1SCc1ccc(Cl)c(Cl)c1	inconclusive [inhibitor, single point]	–
S=C1NC2(CCCCC2)Nc2ccccc21	inconclusive [inhibitor, single point]	–
CCOc1ccc2oc(C(=O)O)c(C)c2c1	–	inactive: -16.4%
CCCCNC(=O)COC(=O)c1c2c(nc3ccccc13)/C(=C/c1cccs1)CC2	inconclusive [inhibitor, full curve]	–
CC(=O)N(C)C1=C(N2CCOCC2)C(=O)c2ccccc2C1=O	inconclusive [inhibitor, single point]	–
CC(C)(C)NC(=O)C(=O)NNC(=O)c1ccco1	–	inactive: -12.9%
CCOc1ccc(C(=O)N/N=C(/C)C2C(=O)c3ccccc3C2=O)cc1	active: 2.82 µM	–
COc1cc(-c2c(-c3ccc4c(c3)OCO4)noc2C)ccc1F	inconclusive [inhibitor, single point]	–
COc1ccc(C(=O)NC(=S)N2CCCCC2)cc1[N+](=O)[O-]	active: 1.26 µM	–
Cc1cc(C)cc(SCc2noc(C(=O)NC(C)C)c2C(=O)O)c1	inconclusive [inhibitor, single point]	–
COc1ccc(Cl)cc1NC(=S)N(CCCN1CCOCC1)Cc1cn(C)c2ccccc12	inconclusive [inhibitor, single point]	–
O=C(NC(=S)N1CCCc2ccccc21)c1ccc(Br)cc1	inconclusive [inhibitor, single point]	–
Cc1sc2ncn(/N=C/c3ccco3)c(=O)c2c1C	–	inactive: 8.01%
CSc1ccccc1NC(=O)CN(C)Cc1c(O)ccc2ccccc12	–	inactive: -17.7%
CC(C)(C)c1ccc(Cn2nc(CC(=O)O)c3ccccc3c2=O)cc1	–	inactive: -3.41%
Cc1ccc([N+](=O)[O-])cc1N/C=C1\CCc2ccccc2C1=O	inconclusive [inhibitor, single point]	–
CC(=O)C1=C(C)NC(SCC(=O)c2ccc(Cl)cc2)=C(C#N)C1CC(C)C (configuration not stated)	inconclusive [inhibitor, single point]	–
COc1ccccc1NC(=O)CN1CCC(n2nnc3cc(F)ccc32)CC1	–	inactive: -3.11%
COC(=O)c1ccccc1OCCCOc1ccc(C=O)cc1OC	active: 10 µM	–
O=[N+]([O-])c1ccc(-c2cnc(SC(c3ccccc3)c3ccccc3)[nH]2)cc1	inconclusive [inhibitor, single point]	–
O=C1CN(C(=O)CSc2nc3cc(Cl)ccc3c(=O)n2Cc2ccccc2)c2ccccc2N1	active: 12.6 µM	–
CCN(CC(=O)NCCCn1ccnc1)S(=O)(=O)c1ccc(C)cc1	–	inactive: -2.38%
Cn1nc(C(F)(F)F)c(-c2ccccc2)c1NC(=O)c1nccnc1C(=O)O	inconclusive [inhibitor, partial curve]	–
CCn1c(-c2ccc3[nH]c(C)c(C)c3c2)n[nH]c1=S	active: 12.6 µM	–
COC(=O)c1ccc(Sc2nnnn2-c2ccccc2)c([N+](=O)[O-])c1	inconclusive [inhibitor, single point]	–
CCCOc1ccc(C(=O)C(CN2CCOCC2)c2ccccc2)cc1 (configuration not stated)	inconclusive [inhibitor, single point]	–

Compound	Potency	activity, negative = inhibition
O=C1CSC(c2cn(-c3ccccc3)nc2-c2cc3ccccc3o2)N1Cc1ccccc1 (configuration not stated)	–	inactive: 13.8%
Cc1cc(C(=O)Nc2ccccn2)cs1	inconclusive [inhibitor, single point]	–
COC(=O)c1c(NC(NC(=O)C(C)C)C(Cl)(Cl)Cl)sc2c1CCCC2 (configuration not stated)	inconclusive [inhibitor, single point]	–
CC(=O)Nc1ccc(OCC(=O)N2CCC(Cc3ccccc3)CC2)cc1	–	inactive: 5.96%
O=C1c2ccccc2NC(c2ccccc2)N1/N=C/c1ccccc1 (configuration not stated)	active: 11.2 µM	–
COc1cccc(/C=N/NC(=S)NCCc2ccccc2)c1OC	inconclusive [inhibitor, single point]	–
O=C(NC(=S)Nc1ccc(Cl)cn1)C(c1ccccc1)c1ccccc1	active: 3.98 µM	–
Cc1cc(/C=C(\C#N)C(=O)N2CCOCC2)c(C)n1C1CCCC1	inconclusive [inhibitor, partial curve]	–
O=C(NNC1=NCCC1)c1cccc(S(=O)(=O)N2CCOCC2)c1	inconclusive [inhibitor, single point]	–
Cc1ccccc1C(=O)N1CCN(c2ccc(NC(=O)c3cccc(OC(C)C)c3)cc2)CC1	inconclusive [inhibitor, partial curve]	–
COc1ccc(C(C[N+](=O)[O-])c2c(C)[nH]n(-c3ccccc3)c2=O)cc1 (configuration not stated)	inconclusive [inhibitor, single point]	–
COC(=O)CC1C(=O)NCCN1C(=O)CSc1nnc(Nc2ccc(OC)cc2)s1 (configuration not stated)	inconclusive [inhibitor, single point]	–
COc1ccc(-c2nc3cc(C)ccn3c2NC(=O)c2ccccc2OC)cc1	–	inactive: -17%
Cc1cc(C)c2nc(NNC(=O)c3cc(-c4cccs4)nc4ccccc34)sc2c1	active: 10 µM	–
Cc1ccc(NC(=S)c2ccc(N(C)C)cc2)cc1	inconclusive [inhibitor, single point]	–
O=C(c1cc(-c2ccc(O)cc2)on1)N1CCN(c2ccc(F)cc2)CC1	–	inactive: 2.88%
O=C1N/C(=N/c2ccccn2)SC1Cc1ccccc1 (configuration not stated)	active: 2.51 µM	–
CCN1CCN(CCNC(=O)c2ccc(CS(=O)c3ccc(Br)cc3)o2)CC1 (configuration not stated)	–	inactive: -1.21%
C[C@H](NC(=O)c1nc[nH]c1C(=O)N1CCc2ccccc2C1)C(=O)OC(C)(C)C	inconclusive [inhibitor, single point]	–
Cc1cc(C)cc(OCc2nnc(N)s2)c1	–	inactive: 8.36%
NS(=O)(=O)c1ccc(N/C=C\C(=O)c2ccc3ccccc3c2)cc1	inconclusive [activator, single point]	–
COc1ccc(Cn2c(-c3ccc(OC)c(O)c3)nc3ccccc32)cc1O	inconclusive [activator, single point]	–
Cc1ccc(-c2nc(NC(=O)CSc3nnc4scc(-c5ccccc5)n34)ns2)cc1	inconclusive [inhibitor, single point]	–
Cc1nn(CC(=O)NCCc2cccs2)c(=O)c2cc3ccccc3n12	–	inactive: -2.75%
COc1ccc(CNC(=O)C(C#N)c2nc3ccccc3nc2N2CCN(C)CC2)cc1 (configuration not stated)	–	inactive: -10.7%
O=C(c1noc2c1CCCC2)N1CCc2ccccc2C1	inconclusive [inhibitor, full curve]	–

Compound	Potency	activity, negative = inhibition
Cc1ccc(-c2ccc(C3C(C#N)=C(N)Oc4n[nH]c(C)c43)o2)cc1 (configuration not stated)	active: 11.2 µM	–
O=C(Nc1ccccc1C(F)(F)F)N1CCCCCC1	–	inactive: 19.2%
Cn1sc(NC(=O)c2ccccc2Cl)nc1=O	–	inactive: -0.0192%
CC(C)N1CCc2c(sc(NC(=O)c3ccc4ccccc4c3)c2C(N)=O)C1	inconclusive [inhibitor, single point]	–
Cc1c(/C=N/Nc2nc3ccccc3[nH]2)c2ccccc2n1C	inconclusive [inhibitor, single point]	–
O=S(=O)(c1cccs1)N1CN(CC2CCCO2)c2nc3ccccc3nc21 (configuration not stated)	inconclusive [inhibitor, single point]	–
CCOC(=O)c1cnc(-n2nc(C)cc2C)nc1N(CC)CC	active: 4.47 µM	–
O=C(Nc1nc2ccccc2[nH]1)c1ccc(F)cc1	active: 5.62 µM	–
CCOC(=O)c1cnc2ccc(OCC)cc2c1NCc1ccccc1OC	inconclusive [inhibitor, single point]	–
S=C(NCc1ccccn1)Nc1ccc(Cl)cc1	inconclusive [inhibitor, single point]	–
S=C(Nc1ccccc1)N1CCN(Cc2ccccc2)CC1	inconclusive [inhibitor, single point]	–
CCn1c(/C=C/c2c(C)[nH]c3ccccc23)nc2ccccc2c1=O	inconclusive [inhibitor, single point]	–
Cc1ccccc1-c1nc(-c2ccccn2)no1	active: 7.94 µM	–
COc1cc(-c2n[nH]c(=S)n2-c2ccc(Br)cc2)cc(OC)c1OC	inconclusive [inhibitor, single point]	–
O=C(CCCOc1ccccc1)N1CCN(S(=O)(=O)c2cccs2)CC1	–	inactive: -28.6%
COc1ccc(CNC/C=C/c2ccccc2)cc1	–	inactive: -1.83%
CCn1ccnc1CN(C)C(=O)c1cc(COc2ccccc2SC)on1	–	inactive: 2.53%
Cc1ccc(/C=N/N2CCN(c3ccncc3S(=O)(=O)N3CCCCC3)CC2)cc1	–	inactive: -0.959%
COc1ccc(-c2nc(NC(=O)Cn3cnnn3)sc2C)cc1	–	inactive: -0.436%
COc1ccc(-c2nnc(SCC(C)C)o2)cc1	inconclusive [inhibitor, single point]	–
CCn1c(=NC(=O)c2ccco2)sc2cccc(F)c21	inconclusive [activator, full curve]	–
COc1ccc(Cc2nc(-c3ccc(-n4cccc4)cc3)no2)cc1OC	inconclusive [inhibitor, single point]	–
CCn1c(SCC(N)=O)nc2sc3c(c2c1=O)CCCC3	inconclusive [inhibitor, single point]	–
COc1ccc(NC(=S)N2CCC(Cc3ccccc3)CC2)cc1	inconclusive [inhibitor, single point]	–
CN(c1ccccc1)S(=O)(=O)c1cccc(NC(=O)CSc2n[nH]c(N)n2)c1	active: 7.08 µM	–
